Reference: patent EP4667483A1, “HUMAN TRANSFERRIN RECEPTOR-BINDING PEPTIDE” (JCR Pharmaceuticals Co., Ltd., priority 2023, dated 2024)
pKd: −log10 of the molar value. At least one compound was matched to its structure with a doubt left. Bridge positions count the residues as written; N and C are the ends. Square brackets hold non-standard residues; d marks the D form. Peptide text beside a SMILES is read from it. * marks the point of attachment. Ala(imidazo(1,2-a)pyr3yl) = N[C@@H](Cc1cnc2ccccn12)C(=O)O; Trp(1-CH2COOH) = N[C@@H](Cc1cn(CC(=O)O)c2ccccc12)C(=O)O; Nle(6-morpholino) = N[C@@H](CCCCN1CCOCC1)C(=O)O; Phe(3-COOH) = N[C@@H](Cc1cccc(C(=O)O)c1)C(=O)O; Trp(7-aza) = N[C@@H](Cc1c[nH]c2ncccc12)C(=O)O; Tyr(2,6-F2) = N[C@@H](Cc1c(F)cc(O)cc1F)C(=O)O; NMePhe(3-Cl) = CN[C@@H](Cc1cccc(Cl)c1)C(=O)O; 3Pal(6-NH2) = Nc1ccc(C[C@H](N)C(=O)O)cn1; NMeY = CN[C@@H](Cc1ccc(O)cc1)C(=O)O; Nva(3-Et) = CCC(CC)[C@H](N)C(=O)O; 4Pal = N[C@@H](Cc1ccncc1)C(=O)O; PEG4 = NCCOCCOCCOCCOCCC(=O)O; Carboxymethyl = O=C(O)C*

Key:
[1] = target: T1, human transferrin receptor (hTfR) (Homo sapiens, UniProt P02786); test: SPR measurement under pH 7.4 conditions (Biacore T200, CM3 chip, hTfR captured by His Tag antibody); format: binding; details: read-out: hTfR SPR pH7.4 KD
Procedure: (§1) Molecular interactions between the synthesized peptides and the transferrin receptor (hTfR) were evaluated by surface plasmon resonance (SPR) using the following method. The specific assay procedure is described below.
An CM3 sensor chip (Cytiva) was inserted into BiacoreT200 (Cytiva), then a priming operation was performed three times by using a running buffer: HBS-P+, pH7.4 (Cytiva), and an equilibrium state was created at a flow rate of […]. Ligand immobilization was performed at a flow rate of 10 µL/min. After mixing 50 µL each of 60 mM EDC solution (Cytiva) and 650 mM NHS solution (Cytiva), the mixture was reacted at a flow rate of 10 µL/min for 420 seconds. 150 µL of […] THE His Tag Antibody, mAb, Mouse (GenScript) was prepared by diluting with 10 mM acetic acid solution (pH 5.0), and reacted at a flow rate of 10 µL/ min for 420 seconds. Then, THE His Tag Antibody, mAb, Mouse (GenScript) was immobilized as a capture molecule on the CM3 sensor chip. After immobilization, capping was performed by reacting with 1.0 M ethanolamine solution (Cytiva) at a flow rate of 10 µL/min for 420 seconds. 300 nM hTfR was captured at a flow rate of 10 µL/min, a peptide solution prepared at 10 mM in DMSO was diluted with running buffer to achieve a final concentration of 10 µM, and peptide solutions at 250 nM, 125 nM, 62.5 nM, 25 nM, and 12.5 nM were prepared. . The peptide samples were reacted at a flow late of 30 µL/min for 120 seconds, followed by dissociation for 600 seconds. The kinetics of the peptide against hTfR was obtained by SPR measurement for the above samples.
(§2) The kinetic evaluation model was single-cycle kinetics, and curve fitting was performed using Biacore T200 Evaluation Software Version 3.0 (Cytiva). The binding of the peptide to hTfR was evaluated by performing curve fitting on the obtained sensorgram by the least squares method and obtaining the kon value, the koff value, and the KD value.

[2] = target: T1, human transferrin receptor (hTfR); test: SPR measurement under pH 6.0 conditions (Biacore T200, NTA chip, immobilized hTfR); format: binding; details: read-out: hTfR SPR pH6.0 KD
Procedure: as §1
An NTA sensor chip (Cytiva) was inserted in a Biacore T200 (Cytiva), a priming operation was performed 3 times with a running buffer: HBS-P+ pH 6.0 (Cytiva), and an equilibrium state was created at a flow rate of 30 µL/min. A ligand immobilization operation was carried out at a flow rate of 10 µL/min.
The surface of the NTA sensor chip was washed with 350 mM EDTA solution, nickel ions were loaded into the carbomethyldextran chains of the sensor chip with a 500 µM aqueous nickel chloride solution, and then washing was performed with 3 mM EDTA solution. After mixing 50 µL of each of 60 mM EDC solution (Cytiva) and 650 mM NHS solution (Cytiva), the mixture was reacted for 420 seconds at a flow rate of 10 µL/min. 150 µL of 0.2 µM hTfR solution was prepared by diluting with 10 mM acetic acid solution (pH 5.0), and reacted for 420 seconds at a flow rate of 10 µL/min to immobilize hTfR on the NTA sensor chip. For the human transferrin receptor (hTfR), the recombinant hTfR described in Example 2 of WO2018/124121 was used. After immobilization, capping was performed by reacting with 1.0 M ethanolamine aqueous solution (Cytiva) at a flow rate of 10 µL/min for 420 seconds. Peptide lysate prepared in DMSO to 10 mM was diluted with the running buffer to a final concentration of 10 µM peptide lysate, and then peptide solutions of 250 nM, 125 nM, 62.5 nM, 25 nM, and 12.5 nM were prepared. The kinetics of the peptide against hTfR was obtained by SPR measurement using the above samples.
as §2

T1 sequence (P02786 whole entry): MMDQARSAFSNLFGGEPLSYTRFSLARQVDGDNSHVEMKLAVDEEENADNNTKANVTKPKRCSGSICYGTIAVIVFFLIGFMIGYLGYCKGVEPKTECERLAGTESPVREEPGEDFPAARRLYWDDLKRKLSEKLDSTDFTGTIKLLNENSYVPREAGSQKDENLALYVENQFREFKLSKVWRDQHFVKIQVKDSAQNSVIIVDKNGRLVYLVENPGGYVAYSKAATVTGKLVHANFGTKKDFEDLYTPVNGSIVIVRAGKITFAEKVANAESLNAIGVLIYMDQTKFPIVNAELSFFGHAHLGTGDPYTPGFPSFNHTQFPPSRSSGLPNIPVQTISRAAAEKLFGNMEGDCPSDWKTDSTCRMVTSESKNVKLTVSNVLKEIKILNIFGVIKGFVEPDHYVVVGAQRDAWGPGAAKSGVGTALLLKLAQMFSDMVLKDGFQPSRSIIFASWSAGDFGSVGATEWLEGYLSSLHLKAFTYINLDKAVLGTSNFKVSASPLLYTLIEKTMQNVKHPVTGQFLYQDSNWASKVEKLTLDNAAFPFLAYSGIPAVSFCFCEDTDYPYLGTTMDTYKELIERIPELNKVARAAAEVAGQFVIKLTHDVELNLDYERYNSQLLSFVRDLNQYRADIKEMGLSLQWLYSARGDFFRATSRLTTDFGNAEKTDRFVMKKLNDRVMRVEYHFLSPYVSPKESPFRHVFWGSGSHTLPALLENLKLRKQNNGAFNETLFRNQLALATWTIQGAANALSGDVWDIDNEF

Row | Compound | pKd ([1]; pH 7.4, single-cycle kinetics) | pKd ([2]; pH 6.0, single-cycle kinetics) | pKd ([1]; SPR, pH 7.4) | pKd ([2]; SPR, pH 6.0)
1 | CC[C@H](C)[C@@H]1NC(=O)[C@H](Cc2ccc(OCC(=O)NC[C@H](O)[C@@H](O)[C@H](O)[C@H](O)CO)cc2)NC(=O)[C@H](Cc2ccc(O)cc2)NC(=O)[C@H](CC(N)=O)NC(=O)[C@H](Cc2c[nH]c3ncccc23)NC(=O)[C@H](C(C)C)NC(=O)[C@H](Cc2cccc(Cl)c2)N(C)C(=O)[C@H](C(C)C)NC(=O)[C@H](C)NC(=O)CSC[C@@H](C(=O)NCCOCCOCCOCCOCCC(N)=O)NC(=O)[C@H](Cc2ccc(O)cc2)N(C)C(=O)[C@H](Cc2ccncc2)NC(=O)[C@H](CCCNC(=N)N)NC(=O)[C@H](CCC(N)=O)NC(=O)[C@H]([C@@H](C)CC)NC1=O [compound 28] | 8.90 | 7.95 | – | –
2 | CCC(CC)[C@@H]1NC(=O)[C@H](Cc2ccc(OC)cc2)NC(=O)[C@H](Cc2ccc(N)nc2)NC(=O)[C@H](CC(N)=O)NC(=O)[C@H](Cc2c[nH]c3ncccc23)NC(=O)[C@H](C(C)C)NC(=O)[C@H](Cc2cccc(Cl)c2)N(C)C(=O)[C@H](C(C)C)NC(=O)[C@H](C)NC(=O)CSC[C@@H](C(=O)NCCOCCOCCOCCOCCC(N)=O)NC(=O)[C@H](Cc2ccc(O)cc2)N(C)C(=O)[C@H](Cc2ccncc2)NC(=O)[C@H](CCCNC(=N)N)NC(=O)[C@H](CCCCN2CCOCC2)NC(=O)[C@H]([C@@H](C)CC)NC1=O [compound 46] ({CH2CO}-AV[NMePhe(3-Cl)]V[Trp(7-aza)]N[3Pal(6-NH2)]Y(Me)[Nva(3-Et)]I[Nle(6-morpholino)]R[4Pal][NMeY]C[PEG4]-NH2; thioether N-15) | 8.58 | 7.84 | – | –
3 | CCC(CC)[C@@H]1NC(=O)[C@H](Cc2ccc(OCC(=O)O)cc2)NC(=O)[C@H](Cc2ccc(O)cc2)NC(=O)[C@H](CC(N)=O)NC(=O)[C@H](Cc2cnc3ccccn23)NC(=O)[C@H](C(C)C)NC(=O)[C@H](Cc2cccc(Cl)c2)N(C)C(=O)[C@H](C(C)C)NC(=O)[C@H](C)NC(=O)CSC[C@@H](C(=O)NCCOCCOCCOCCOCCC(N)=O)NC(=O)[C@H](Cc2ccc(O)cc2)N(C)C(=O)[C@H](Cc2cccc(C(=O)O)c2)NC(=O)[C@H](CCCNC(=N)N)NC(=O)[C@H](CCC(N)=O)NC(=O)[C@H]([C@@H](C)CC)NC1=O [compound 53] ({CH2CO}-AV[NMePhe(3-Cl)]V[Ala(imidazo(1,2-a)pyr3yl)]NYY(Carboxymethyl)[Nva(3-Et)]IQR[Phe(3-COOH)][NMeY]C[PEG4]-NH2; thioether N-15) | 7.67 | 6.28 | – | –
4 | CC[C@H](C)[C@@H]1NC(=O)[C@H](Cc2ccc(OCC(=O)O)cc2)NC(=O)[C@H](Cc2c(F)cc(O)cc2F)NC(=O)[C@H](CC(N)=O)NC(=O)[C@H](Cc2cn(CC(=O)O)c3ccccc23)NC(=O)[C@H](C(C)C)NC(=O)[C@H](Cc2cccc(Cl)c2)N(C)C(=O)[C@H](C(C)C)NC(=O)[C@H](C)NC(=O)CSC[C@@H](C(=O)NCCOCCOCCOCCOCCC(N)=O)NC(=O)[C@H](Cc2ccc(O)cc2)N(C)C(=O)[C@H](Cc2cccc(C(=O)O)c2)NC(=O)[C@H](CCCNC(=N)N)NC(=O)[C@H](CCC(N)=O)NC(=O)[C@H]([C@@H](C)CC)NC1=O [compound 78] ({CH2CO}-AV[NMePhe(3-Cl)]V[Trp(1-CH2COOH)]N[Tyr(2,6-F2)]Y(Carboxymethyl)IIQR[Phe(3-COOH)][NMeY]C[PEG4]-NH2; thioether N-15) | – | – | 8.48 | 8.35
